{
  "source": "the antibiotic and cytotoxicity screens of Wong et al. (2023)",
  "key": {"HSkMC": {"system": "HSkMC", "test": "cytotoxicity call (relative viability < 0.9)", "details": "10 µM"}, "HepG2": {"system": "HepG2", "test": "cytotoxicity call (relative viability < 0.9)", "details": "10 µM"}, "S. aureus RN4220": {"system": "S. aureus RN4220", "test": "growth inhibition call (relative growth <= 0.2)", "details": "50 µM"}},
  "note": "The list shows a part of the results.",
  "data": [
    {"smiles": "NC(=S)N[C@H]1CCS(=O)(=O)C1", "values": [
      {"measurement": "cytotoxicity call", "setting": "HSkMC", "result": "inactive"},
      {"measurement": "cytotoxicity call", "setting": "HepG2", "result": "inactive"},
      {"measurement": "growth inhibition call", "setting": "S. aureus RN4220", "result": "inactive"}
    ]},
    {"smiles": "C[C@H]1CN([C@@H](C)CO)C(=O)c2cc(NC(=O)CCC(F)(F)F)ccc2O[C@H]1CN(C)S(C)(=O)=O", "values": [
      {"measurement": "cytotoxicity call", "setting": "HSkMC", "result": "inactive"},
      {"measurement": "cytotoxicity call", "setting": "HepG2", "result": "inactive"},
      {"measurement": "growth inhibition call", "setting": "S. aureus RN4220", "result": "inactive"}
    ]},
    {"smiles": "COc1ccc(NC(=O)Nc2ccc3c(c2)C(=O)N([C@@H](C)CO)C[C@@H](C)[C@H](CN(C)S(=O)(=O)c2c(C)noc2C)OCCCC[C@H](C)O3)cc1", "values": [
      {"measurement": "cytotoxicity call", "setting": "HSkMC", "result": "inactive"},
      {"measurement": "cytotoxicity call", "setting": "HepG2", "result": "inactive"},
      {"measurement": "growth inhibition call", "setting": "S. aureus RN4220", "result": "inactive"}
    ]},
    {"smiles": "C[C@@H]1CN([C@H](C)CO)C(=O)Cc2cc(NC(=O)Nc3ccc(F)cc3)ccc2O[C@@H]1CN(C)Cc1ccc(C(F)(F)F)cc1", "values": [
      {"measurement": "cytotoxicity call", "setting": "HSkMC", "result": "active"},
      {"measurement": "cytotoxicity call", "setting": "HepG2", "result": "active"},
      {"measurement": "growth inhibition call", "setting": "S. aureus RN4220", "result": "inactive"}
    ]},
    {"smiles": "O=C(C[C@H]1CC[C@@H]2[C@H](COC[C@@H](O)CN2C(=O)c2cccnc2)O1)NCC1CC1", "values": [
      {"measurement": "cytotoxicity call", "setting": "HSkMC", "result": "inactive"},
      {"measurement": "cytotoxicity call", "setting": "HepG2", "result": "inactive"},
      {"measurement": "growth inhibition call", "setting": "S. aureus RN4220", "result": "inactive"}
    ]},
    {"smiles": "Nc1nc(=O)c2nc(C(=O)O)cnc2[nH]1", "values": [
      {"measurement": "cytotoxicity call", "setting": "HSkMC", "result": "inactive"},
      {"measurement": "cytotoxicity call", "setting": "HepG2", "result": "inactive"},
      {"measurement": "growth inhibition call", "setting": "S. aureus RN4220", "result": "inactive"}
    ]},
    {"smiles": "COc1ccc(NC(=O)Nc2ccc3c(c2)C(=O)N([C@@H](C)CO)C[C@@H](C)[C@H](CN(C)C(=O)Nc2ccc(OC)cc2)OCCCC[C@@H](C)O3)cc1", "values": [
      {"measurement": "cytotoxicity call", "setting": "HSkMC", "result": "inactive"},
      {"measurement": "cytotoxicity call", "setting": "HepG2", "result": "inactive"},
      {"measurement": "growth inhibition call", "setting": "S. aureus RN4220", "result": "inactive"}
    ]},
    {"smiles": "CC(C)NC(=O)N[C@H]1C=C[C@@H](CC(=O)NCCCN(C)C)O[C@H]1CO", "values": [
      {"measurement": "cytotoxicity call", "setting": "HSkMC", "result": "inactive"},
      {"measurement": "cytotoxicity call", "setting": "HepG2", "result": "inactive"},
      {"measurement": "growth inhibition call", "setting": "S. aureus RN4220", "result": "inactive"}
    ]},
    {"smiles": "O=C(Cn1cc(COc2ccc(-n3cccc3)cc2)nn1)NS(=O)(=O)c1ccccc1C(F)(F)F", "values": [
      {"measurement": "cytotoxicity call", "setting": "HSkMC", "result": "inactive"},
      {"measurement": "cytotoxicity call", "setting": "HepG2", "result": "inactive"},
      {"measurement": "growth inhibition call", "setting": "S. aureus RN4220", "result": "inactive"}
    ]},
    {"smiles": "COc1ccccc1S(=O)(=O)N[C@@H]1C=C[C@@H](CC(=O)N2CCOCC2)O[C@@H]1CO", "values": [
      {"measurement": "cytotoxicity call", "setting": "HSkMC", "result": "inactive"},
      {"measurement": "cytotoxicity call", "setting": "HepG2", "result": "inactive"},
      {"measurement": "growth inhibition call", "setting": "S. aureus RN4220", "result": "inactive"}
    ]},
    {"smiles": "Cc1nn(C)c(C)c1Nc1nnc(N)[nH]1", "values": [
      {"measurement": "cytotoxicity call", "setting": "HSkMC", "result": "inactive"},
      {"measurement": "cytotoxicity call", "setting": "HepG2", "result": "inactive"},
      {"measurement": "growth inhibition call", "setting": "S. aureus RN4220", "result": "inactive"}
    ]},
    {"smiles": "C[C@@H]1CCCCO[C@H](CN(C)Cc2ccc(C(F)(F)F)cc2)[C@H](C)CN([C@@H](C)CO)C(=O)c2cc(NS(C)(=O)=O)ccc2O1", "values": [
      {"measurement": "cytotoxicity call", "setting": "HSkMC", "result": "inactive"},
      {"measurement": "cytotoxicity call", "setting": "HepG2", "result": "inactive"},
      {"measurement": "growth inhibition call", "setting": "S. aureus RN4220", "result": "inactive"}
    ]},
    {"smiles": "C[C@@H]1CN([C@@H](C)CO)C(=O)c2cc(NS(C)(=O)=O)ccc2O[C@@H](C)CCCCO[C@@H]1CN(C)S(=O)(=O)c1ccccc1", "values": [
      {"measurement": "cytotoxicity call", "setting": "HSkMC", "result": "inactive"},
      {"measurement": "cytotoxicity call", "setting": "HepG2", "result": "inactive"},
      {"measurement": "growth inhibition call", "setting": "S. aureus RN4220", "result": "inactive"}
    ]},
    {"smiles": "CC(C)NC(=O)N(C)C[C@H]1Oc2ncc(-c3ccc(C(=O)N(C)C)cc3)cc2C(=O)N([C@@H](C)CO)C[C@H]1C", "values": [
      {"measurement": "cytotoxicity call", "setting": "HSkMC", "result": "inactive"},
      {"measurement": "cytotoxicity call", "setting": "HepG2", "result": "inactive"},
      {"measurement": "growth inhibition call", "setting": "S. aureus RN4220", "result": "inactive"}
    ]},
    {"smiles": "CN(C)C(=O)CN1CCn2cc(Cn3cncn3)nc2C1", "values": [
      {"measurement": "cytotoxicity call", "setting": "HSkMC", "result": "inactive"},
      {"measurement": "cytotoxicity call", "setting": "HepG2", "result": "inactive"},
      {"measurement": "growth inhibition call", "setting": "S. aureus RN4220", "result": "inactive"}
    ]},
    {"smiles": "COc1ccc(COC[C@@]23Oc4ccccc4[C@@H](NC(=S)N2C)[C@H]3CO[Si](C)(C)C(C)(C)C)cc1", "values": [
      {"measurement": "cytotoxicity call", "setting": "HSkMC", "result": "inactive"},
      {"measurement": "cytotoxicity call", "setting": "HepG2", "result": "active"},
      {"measurement": "growth inhibition call", "setting": "S. aureus RN4220", "result": "inactive"}
    ]},
    {"smiles": "O=C(C[C@@H]1CC[C@H]2[C@@H](COC[C@H](O)CN2C(=O)Nc2ccc(Cl)cc2)O1)NCCc1ccncc1", "values": [
      {"measurement": "cytotoxicity call", "setting": "HSkMC", "result": "inactive"},
      {"measurement": "cytotoxicity call", "setting": "HepG2", "result": "inactive"},
      {"measurement": "growth inhibition call", "setting": "S. aureus RN4220", "result": "inactive"}
    ]},
    {"smiles": "C[C@H]1CN([C@@H](C)CO)C(=O)c2cccc(NS(=O)(=O)c3ccc(F)cc3)c2O[C@H]1CN(C)S(=O)(=O)c1cn(C)cn1", "values": [
      {"measurement": "cytotoxicity call", "setting": "HSkMC", "result": "inactive"},
      {"measurement": "cytotoxicity call", "setting": "HepG2", "result": "inactive"},
      {"measurement": "growth inhibition call", "setting": "S. aureus RN4220", "result": "inactive"}
    ]},
    {"smiles": "COc1ccccc1C#Cc1cnc2c(c1)C(=O)N([C@H](C)CO)C[C@H](C)[C@@H](CN(C)S(=O)(=O)c1cn(C)cn1)O2", "values": [
      {"measurement": "cytotoxicity call", "setting": "HSkMC", "result": "inactive"},
      {"measurement": "cytotoxicity call", "setting": "HepG2", "result": "inactive"},
      {"measurement": "growth inhibition call", "setting": "S. aureus RN4220", "result": "inactive"}
    ]},
    {"smiles": "N#Cc1ccc(-c2cccs2)nc1", "values": [
      {"measurement": "cytotoxicity call", "setting": "HSkMC", "result": "inactive"},
      {"measurement": "cytotoxicity call", "setting": "HepG2", "result": "inactive"},
      {"measurement": "growth inhibition call", "setting": "S. aureus RN4220", "result": "inactive"}
    ]},
    {"smiles": "O=S(=O)(NCCCCN(C/C=C/c1ccc(F)cc1)C/C=C/c1ccc(F)cc1)c1cccc2cnccc12", "values": [
      {"measurement": "cytotoxicity call", "setting": "HSkMC", "result": "inactive"},
      {"measurement": "cytotoxicity call", "setting": "HepG2", "result": "active"},
      {"measurement": "growth inhibition call", "setting": "S. aureus RN4220", "result": "inactive"}
    ]},
    {"smiles": "O=C(NCCN1CCOCC1)[C@@H]1c2ccccc2C(=O)N(Cc2cc(C(F)(F)F)cc(C(F)(F)F)c2)[C@H]1c1ccc(CO)cc1", "values": [
      {"measurement": "cytotoxicity call", "setting": "HSkMC", "result": "inactive"},
      {"measurement": "cytotoxicity call", "setting": "HepG2", "result": "inactive"},
      {"measurement": "growth inhibition call", "setting": "S. aureus RN4220", "result": "inactive"}
    ]},
    {"smiles": "COc1ccc(cc1)S(=O)(=O)N1C[C@]2(C1)CN([C@@H](CO)c1c2c2ccc(cc2n1C)OC)C(=O)c1cccnc1", "values": [
      {"measurement": "cytotoxicity call", "setting": "HSkMC", "result": "inactive"},
      {"measurement": "cytotoxicity call", "setting": "HepG2", "result": "inactive"},
      {"measurement": "growth inhibition call", "setting": "S. aureus RN4220", "result": "inactive"}
    ]},
    {"smiles": "C[C@H](CO)N1C[C@H](C)[C@@H](CN(C)Cc2ccc3c(c2)OCO3)Oc2c(NC(=O)Nc3ccc(C(F)(F)F)cc3)cccc2C1=O", "values": [
      {"measurement": "cytotoxicity call", "setting": "HSkMC", "result": "active"},
      {"measurement": "cytotoxicity call", "setting": "HepG2", "result": "inactive"},
      {"measurement": "growth inhibition call", "setting": "S. aureus RN4220", "result": "inactive"}
    ]},
    {"smiles": "C[C@H](CO)N1C[C@H](C)[C@@H](CN(C)C(=O)Nc2cccc3ccccc23)Oc2c(NS(=O)(=O)c3cccs3)cccc2C1=O", "values": [
      {"measurement": "cytotoxicity call", "setting": "HSkMC", "result": "inactive"},
      {"measurement": "cytotoxicity call", "setting": "HepG2", "result": "inactive"},
      {"measurement": "growth inhibition call", "setting": "S. aureus RN4220", "result": "inactive"}
    ]},
    {"smiles": "O=C(NC[C@H]1Cn2nncc2CO1)c1ccc[nH]1", "values": [
      {"measurement": "cytotoxicity call", "setting": "HSkMC", "result": "inactive"},
      {"measurement": "cytotoxicity call", "setting": "HepG2", "result": "inactive"},
      {"measurement": "growth inhibition call", "setting": "S. aureus RN4220", "result": "inactive"}
    ]},
    {"smiles": "CN1C(C(=O)Nc2ccccn2)=C(O)c2sccc2S1(=O)=O", "values": [
      {"measurement": "cytotoxicity call", "setting": "HSkMC", "result": "inactive"},
      {"measurement": "cytotoxicity call", "setting": "HepG2", "result": "inactive"},
      {"measurement": "growth inhibition call", "setting": "S. aureus RN4220", "result": "inactive"}
    ]},
    {"smiles": "C[C@H](CO)N1C[C@H](C)[C@H](CN(C)C(=O)NC2CCCCC2)OCc2ccccc2-c2c(n(C)c3ccccc23)C1=O", "values": [
      {"measurement": "cytotoxicity call", "setting": "HSkMC (human skeletal muscle cells)", "result": "inactive"},
      {"measurement": "cytotoxicity call", "setting": "HepG2", "result": "active"},
      {"measurement": "growth inhibition call", "setting": "S. aureus RN4220", "result": "inactive"}
    ]}
  ]
}
